# Laboratory results reported in PubChem BioAssay AID463173 (ICCB-Longwood Screening Facility, Harvard Medical School, 2010).
# Hit rate of the full screen: of about 52,000 compounds, about 1,700 (3.3%) were called active. No stated cut-off is given here; in the data, active means survival mostly below about 52% (no sharp cut-off); inactive means mostly above about 56%. This is one part of the list.
# Test system: Wild type
# Experiment: growth inhibition of S. aureus wild type versus tarO mutant, primary screen, teichoic acid synthesis inhibitors, RN4220, OD600 (AID 463173)
# Conditions: S. aureus RN4220 wild type/DeltatarO growth, OD600, 18 h, active compounds read low, screened at 18.75 µg/mL (by protocol)
row,SMILES,survival
1,COc1ccc(-c2nc3ccccc3o2)cc1NC(=O)c1ccc(-c2ccc(C)c(Cl)c2)o1,inactive: 73%
2,CCCN1C2CCCC1CC(NC(=O)c1ccccc1C)C2 (centres undefined),inactive: 108%
3,CCOc1ccc(OCC)c(Nc2nc3ccccc3n3nnnc23)c1,inactive: 89%
4,Cc1ccc(Nc2c(-c3ccco3)nc3ccc(C)cn23)cc1,inactive: 110%
5,CCN(C(=O)c1cc2c(=O)oc3ccccc3c2s1)c1cccc(C(F)(F)F)c1,inactive: 131%
6,COc1ccc(NC(=O)CSC2=Nc3ccccc3C3=NC(Cc4ccccc4)C(=O)N23)cc1 (centres undefined),inactive: 85%
7,Cc1ccc(CC23CN4CC(CN(C4)C2)C3=O)c(C)c1,inactive: 102%
8,O=C(CN1C=NS(=O)(=O)c2ccccc21)Nc1ccc(Br)cc1,inactive: 73%
9,Cc1ccccc1CNC(=O)CCCn1ncn2c(cc3occc32)c1=O,inactive: 84%
10,Cc1cccc(-n2nnc(-c3nc(-c4cccs4)no3)c2N)c1C,inactive: 91%
11,O=C1C2=C(Nc3ccccc3SC2c2ccc(C(F)(F)F)cc2)c2ccccc21 (centres undefined),inactive: 36%
12,COCCNC(=O)c1ccc2c(c1)NC(=O)C(CS(=O)(=O)Cc1ccc(F)cc1Cl)N2 (centres undefined),inactive: 134%
13,COc1ccc(NC(=O)c2c(NC(=O)c3cccc(C)c3)sc3c2CCC3)cc1,inactive: 74%
14,COc1cccc(CNC(=O)c2ccc3oc(=O)n(Cc4ccccc4)c3c2)c1,active: -3%
15,Cc1nn(-c2cc(N3CCOCC3)ccc2N)c(=O)c2ccccc12,inactive: 100%
16,COc1ccccc1Nc1ncc2c(n1)CCN(CC(C)C)C2,inactive: 71%
17,CCN1C(=O)c2ccccc2S(=O)c2ccc(C(=O)N3CCN(c4ccc(F)cc4)CC3)cc21 (centres undefined),inactive: 86%
18,Cc1cccc(-c2nc(-c3ccc4c(c3)[nH]c(=O)n4C)no2)c1,inactive: 72%
19,O=C(Nc1ccc2oc(-c3cccc4c(Br)cccc34)nc2c1)c1ccc(Br)cc1,inactive: 91%
20,CC(=O)c1[nH]c(C)c(C(=O)NCc2ccc(Cl)cc2)c1C,inactive: 105%

row,SMILES,survival
1,COc1cc(C)c(S(=O)(=O)Nc2cccc(-c3ccc(N4CCCC4)nn3)c2)cc1C,inactive: 70%
2,Cc1cc(F)ccc1NC(=O)CCS(=O)(=O)c1cccc2nsnc12,inactive: 61%
3,Cc1ccccc1CN1C(=O)c2ccccc2Sc2ccc(C(=O)N3CCOCC3)cc21,inactive: 88%
4,COc1ccccc1-c1c(C(F)(F)F)oc2c(CN3CCCCC3C)c(O)ccc2c1=O (centres undefined),inactive: 71%
5,Cc1cccc2cc(C(c3nnnn3CCc3ccccc3)N3CCN(c4nc5ccccc5s4)CC3)c(=O)[nH]c12 (centres undefined),inactive: 108%
6,O=C(NC1CCCC1)c1ccc2c(c1)OCO2,inactive: 107%
7,Cc1cccc(NC(=O)CSc2nc3c(oc4ccccc43)c(=O)n2-c2ccccc2)c1C,inactive: 86%
8,CCCN(CCC)CCCNC(=O)c1cc2c(-c3ccc(Cl)cc3)nn(C)c2s1,inactive: 95%
9,CCc1cc(=O)oc2cc(C)c3c(-c4ccc(F)cc4)coc3c12,inactive: 59%
10,Cc1ccc(S(=O)(=O)N2CCC(C(=O)Nc3cc(C)ccc3C)CC2)cc1,inactive: 95%
11,COc1ccc(Cn2c(=O)c3oc4ccccc4c3n(Cc3ccccc3)c2=O)cc1,inactive: 85%
12,O=S(=O)(NCc1ccco1)c1ccc(-c2ccc(S(=O)(=O)NCc3ccco3)cc2)cc1,inactive: 95%
13,COc1cc(-c2cc3n(C)c(C)c(CCC(=O)Nc4ccc(F)cc4)c(=O)n3n2)cc(OC)c1OC,inactive: 79%
14,O=C(CSc1c2c(nc3ccccc13)CCC2)Nc1ccc(F)cc1F,inactive: 62%
15,Cc1ccc(OCCSc2nc(-c3cccs3)nc3cc(=O)[nH]n23)cc1Cl,inactive: 121%
16,CCOC(=O)c1[nH]c(C)c(CCC(=O)NCc2cccc(Cl)c2)c1C,inactive: 71%
17,COC(=O)c1ccc([C@@H]2Nc3c(cccc3C(F)(F)F)[C@@H]3C=CC[C@@H]32)cc1,active: 3%
18,COc1ccccc1CCNC(=O)Cc1c(C)c2c(O)cc(C)cc2oc1=O,inactive: 69%
19,COc1ccc(NC(=O)CCN2CCOCC2)cc1,inactive: 111%
20,O=C1OC(Nc2ccccn2)c2ccccc21 (centres undefined),inactive: 103%

row,SMILES,survival
1,COC(=O)c1c(NC(=O)C2c3ccccc3Oc3ccccc32)sc2c1CCC(C)C2 (centres undefined),inactive: 70%
2,Nc1nonc1-c1nc2ccccc2n1Cc1ccc(Br)cc1,inactive: 93%
3,Nc1nc2nc(-c3ccc(Cl)cc3)cc(C(F)(F)F)n2n1,inactive: 144%
4,CC(=O)N1c2ccccc2C(=O)C1N1CCN(c2cccc(C)c2C)CC1 (centres undefined),inactive: 99%
5,Cc1ccc(NC(=O)CSc2nc3c(c(=O)[nH]2)CN(Cc2ccccc2)CC3)cc1Cl,inactive: 72%
6,CC(C)(Oc1ccc(Cl)cc1)C(=O)Nc1cccc(-c2cn3cccnc3n2)c1,inactive: 82%
7,CC(CNC(=O)c1sc2ncccc2c1-n1cccc1)c1ccccc1 (centres undefined),inactive: 81%
8,Cc1ccc(NC(=O)C2=CC(c3cccs3)=NS(=O)(=O)N2C)cc1,inactive: 91%
9,CC1(C)CC(=O)c2cc(C(=O)Nc3ccc(Cl)cc3)c(=O)[nH]c2C1,inactive: 71%
10,Cn1c(=O)c2c(ncn2C/C=C/c2ccccc2)n(C)c1=O,inactive: 103%
11,Cc1nc2scc(C)n2c(=O)c1S(=O)(=O)Nc1ccc(N2CCN(C(=O)C(C)C)CC2)cc1,inactive: 133%
12,O=C(CC(c1cccs1)N1Cc2ccccc2C1=O)Nc1ccccc1F (centres undefined),inactive: 73%
13,CCOC(=O)C1CCN(C(=O)c2ccc(C)cc2)CC1,inactive: 93%
14,COC(=O)c1cc2occc2n1Cc1ccc(F)cc1Cl,inactive: 19%
15,COc1ccc(-c2nnc(SCC#N)o2)cc1,inactive: 106%
16,Cc1ccc(NC(=O)CN2C(=O)CSc3ccc(S(=O)(=O)N(C)C)cc32)cc1C,inactive: 66%
17,Cc1ccc(CSC2=Nc3ccccc3C3=NC(CCC(=O)NCCc4ccccc4)C(=O)N23)cc1 (centres undefined),inactive: 66%
18,CN(C)CCNc1ccc(Cl)nn1,inactive: 86%
19,COc1ccc(-c2nc(S(=O)(=O)c3ccc(Cl)cc3)c(N3CCCCCC3)o2)cc1,inactive: 64%
